Assay results taken from PubChem BioAssay (NCI).
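Values below derive from 48-hour exposures of cells grown in 96-well plates, with endpoints linearly interpolated between the two concentrations bracketing the appropriate inhibition level. GI50 marks 50% less growth. TGI denotes the concentration required for complete inhibition of growth.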

Each compound was assayed on NCI-H322M lung (assay: NCI tumour cell line growth inhibition, 48 h).

Row | Compound | TGI [µM] | GI50 [µM]
1 | O=C1OC(c2ccc(O)c(Cl)c2)(c2ccc(O)c(Cl)c2)c2ccc(Br)c3cccc1c23 (tested in a mixture with another compound) | 28.3 | 
2 | COc1cc(OC)c2c(=O)c(O)c(-c3ccc(OC)c(OC)c3)oc2c1 | > 100 | 
3 | Cn1c(CCC#N)nc2ccc(Br)cc2c1=O | > 100 | 
4 | Cc1ccc(NC(=O)/C(CC(=O)c2c[n+](=O)c3ccccc3n2O)=N\NC(=O)C[n+]2ccccc2)cc1 | > 100 | 
5 | Cc1ccc(C)c(NC(=O)c2cc(-c3ccc([N+](=O)[O-])cc3)nc(N)n2)c1 | > 100 | 
6 | COC(=O)NCCc1[nH]nc2c1C(=O)C=C(Nc1ccccc1)C2=O | > 100 | 
7 | O=C1c2ccccc2C(=O)N1c1ccc(S(=O)(=O)Nc2ncccn2)cc1 | > 100 | > 100
8 | O=C(NO)c1coc2ccccc2c1=O | > 100 | 
9 | COc1ccc2c3c1OC1C(=O)C=CC4(O)C(C2)NCC[C@@]314 (stereo partly specified) | 21.1 | 
10 | COc1ccc(/C=C2\CSC/C(=C\c3ccc(OC)c(OC)c3OC)C2=O)c(OC)c1OC | > 100 | 
11 | O=c1[nH]c2ccc(CC(=S)N3CCOCC3)cc2s1 | > 100 | 
12 | CC(=O)/C=C/C1=C(c2cc3ccccc3s2)c2ccccc2CC1 | > 100 | 54.4
13 | C(=C1c2ccccc2-c2ccccc21)c1ccccn1 | 77.7 | 15.3
14 | N#Cc1[nH]c(=O)n(-c2ccc(Cl)cc2)c1N | > 10 | 
15 | COc1ccc2c(c1)c(C1(c3cn(C)c4ccc(OC)cc34)C(=O)Nc3ccc(F)cc31)cn2C | > 100 | 7.14
16 | Cc1cccc(Nc2cn(COCc3ccccc3)c(=O)[nH]c2=O)c1 | > 100 | 
17 | COc1cccc2cc(C(N)=O)c(=N)oc12 | > 100 | 
18 | CN(C)CCNc1ccc([N+](=O)[O-])c2nc3ccccc3c(N)c12 | 3.29 | 
19 | NNC(=O)c1c(Cl)c(Cl)c(Cl)c(Cl)c1-c1nc2ccccc2[nH]1 | 88.2 | 
20 | COc1cc(-c2[nH]ccc2Cl)oc1C1=C2N=C3C=C2C(C(C)C)C1CCCCCCCC3 (stereo unspecified) | 5.35 | 
21 | Cc1ccccc1C(=O)Oc1ccc(Oc2ccccc2)cc1 | > 100 | 
22 | CCc1n[nH]c(=O)n1N1C(=O)C2CC=CCC2C1=O (stereo unspecified) | > 100 | 
23 | COc1cc(/C=C/C(C)=O)ccc1OP(=O)(O)O | > 100 | 
24 | Cc1cc(N(CCC#N)CCC#N)ccc1/C(N=Nc1cccc([N+](=O)[O-])c1)=N/NC(=O)c1cc(Cl)ccc1O | 62 | 
25 | CCCCCCCCCCCCCCCc1cc(O)ccc1N | > 100 | > 67.1

Row | Compound | TGI [µM] | GI50 [µM]
26 | Cn1c(COC(=O)N2CCCCC2)nc2c(N3CCOCC3)nc(-c3ccccc3)nc21 | 2.97 | 1.47
27 | O=Cc1ccc(-c2ccc(-c3ccc(C=O)s3)o2)s1 | > 100 | 
28 | COc1ccc2c3c1C(=O)CCC3CO2 (stereo unspecified) | > 100 | 
29 | CC(=O)O[C@H]1CC[C@]2(C)[C@H]3CC[C@@H]4[C@H]5[C@H](C(C)C)CC[C@]5(C(=O)OCC(CO)(CO)N=C(N)N)CC[C@@]4(C)[C@]3(C)CC[C@H]2C1(C)C | 2.84 | 1.51
30 | O=C(O)CSCC(=O)Nc1ccc2cccc3c2c1CC3 | > 100 | 
31 | O=C(Oc1ccccc1)c1cc2cc(CCl)ccc2oc1=O | > 100 | 
32 | CCc1c2c(nc3cc4c(cc13)OCO4)-c1cc3c(c(=O)n1C2)COC(=O)[C@@]3(CC)OC(=O)CN | 3.52 | < 0.0124
33 | CC(=O)[O-].CC(=O)[O-].O=C(N/N=C/c1cc(Cl)cc(Cl)c1[OH2+])c1ccncc1.[Co+2] | > 100 | 
34 | COc1ccc(C2SCC(=O)N2c2ccc(-c3ccc(-n4c(-c5ccccc5)nc5ccccc5c4=O)cc3)cc2)cc1 (stereo unspecified) | > 100 | 
35 | NNC(=O)CNC(=O)CSc1nnc(COc2ccc(Cl)cc2)n1-c1ccccc1 | > 100 | 
36 | COc1ccc(O)c(C(=O)c2ccc(C(=O)O[C@@H]3CCCNC[C@H]3NC(=O)c3ccncc3)cc2)c1F | > 25 | 2.21
37 | c1ccc(C2SCC3=Nc4ccccc4CN32)cc1 (stereo unspecified) | > 100 | 
38 | O=C1Nc2ccccc2C1Cc1ccccc1 (stereo unspecified) | > 100 | 
39 | Cc1ccc(C(=O)C(C)N)cc1 (stereo unspecified) | > 100 | 
40 | O=C(O)C1C2CC3C(OC(=O)C31)C2Br (stereo unspecified) | > 100 | 
41 | C=CC1CC12C(=O)C1OC2(C)C2C(=O)c3c(ccc4c3ccc3ccccc34)C(=O)C12 (stereo unspecified) | > 100 | 71.3
42 | CC[C@@]1(O)C(=O)OCc2c1cc1n(c2=O)Cc2c-1nc1ccccc1c2CC[Si](C)(C)C | > 100 | 
43 | c1ccc(N=C2SC(=NNc3ccccc3)SC2=Nc2ccccc2)cc1 | > 100 | 
44 | N=C(N)SCCc1cn2ccccc2n1 | > 100 | 
45 | O=C1C2C=CC1C1C(=O)OC(=O)C21 (stereo unspecified) | > 100 | 
46 | Cc1c(-c2cc3n(n2)C(c2cccs2)C(C#N)=C(c2ccccc2)N3)c(=O)n(-c2ccccc2)n1C (stereo unspecified) | > 100 | 
47 | O=C1CCCC/C1=C/C=C/c1ccccc1 | > 100 | 
48 | COc1cc([C@@H]2c3cc4c(cc3[C@@H](NCCNCCO)[C@H]3COC(=O)[C@H]23)OCO4)cc(OC)c1O | > 100 | 
49 | CC(ONC(=O)c1cc(C(F)(F)F)cc(C(F)(F)F)c1)C(=O)Nc1ccc(Cl)cc1 (stereo unspecified) | > 80.6 | 6.14
50 | [Cu+2].[O-]c1ccc2ccccc2c1N=Nc1ccccc1.[O-]c1ccc2ccccc2c1N=Nc1ccccc1 | > 100 | 

Row | Compound | TGI [µM] | GI50 [µM]
51 | O=c1/c(=C/c2ccc(Cl)cc2Cl)sc2nc3ccccc3n12 | > 100 | 
52 | CN1CCN(c2ccc3nc(-c4cc(C(C)(C)C)c(O)c(C(C)(C)C)c4)[nH]c3c2)CC1 | 5.93 | 2.42
53 | N#Cc1c(-c2ccccc2)/c(=C\O)c(=O)n2c1nc1ccccc12 | > 100 | 
54 | O=C1c2ccccc2CC12Cc1cc3c(cc1C2=O)CCC3 (stereo unspecified) | > 100 | 
55 | O=c1c2ccc3cccc4c(=O)cc(c5ccccc15)-c2c34 | > 100 | 
56 | COc1ccc(Cc2nc3cc(C(F)(F)F)ccc3n2CCCN(C)C)cc1 | 39.4 | 
57 | O=S1(=O)CCN(Cc2ccccn2)CC1 | > 100 | 
58 | CC(=O)C1=C(N=[N+]=[N-])c2cccc3cccc(c23)C1=O | 41.9 | 
59 | Cc1ccc2c(c1)NC(=O)CCSSCCC(=O)N2 | > 100 | 
60 | O=c1[nH]c(Br)nc2c(Br)c[nH]c12 | > 100 | 
61 | COc1cc2c(c(OC)c1OC)-c1[nH]ncc1CC2 | > 100 | 
62 | CC(=O)c1ccc(Oc2ccc(/C(C)=N\N=C(N)N)cc2)cc1 | 13.6 | 
63 | Nc1cc(-c2ccccc2)ccc1O | > 100 | 78.4
64 | CCOC(=O)/N=C(\N)SCc1ccccc1 | > 100 | 
65 | CC(c1ccc(Br)cc1)C(C(=O)O)C(=O)O (stereo unspecified) | > 100 | 
66 | N#CCC(=O)Nn1c(CC#N)nnc1Cc1ccccc1 | > 100 | 
67 | C/C(=N\Nc1ccc([N+](=O)[O-])cc1[N+](=O)[O-])c1ccc2ccccc2n1 | > 100 | 
68 | COC(CCP(=O)(c1ccccc1)c1ccccc1)(C(=O)c1ccccc1)c1ccccc1 (stereo unspecified) | 17.9 | 4.36
69 | C=C(C=O)c1c2c(nc3ccccc13)C(=O)c1ccccc1C2=O | 3.1 | 
70 | COc1cc(CSc2nc3ccc(C)cc3c(=O)n2Cc2ccccc2)cc(OC)c1OC | > 100 | 7.26
71 | O=[N+]([O-])c1ccccc1N=Nc1c(O)[nH]c2ccccc12 | > 100 | 
72 | O=C1c2cc3ccccc3cc2C2(c3ccc(Cl)cc3)N[C@H]3CCCC[C@@H]3N12 (stereo partly specified) | 42.5 | 
73 | COc1ccc2[nH]cc(-c3nc(-c4cn(C)c5ccncc45)cs3)c2c1 | 3.47 | 1.87
74 | CC(C)CCC1(O)O[C@H]2C[C@H]3[C@@H]4CCC5CC(=O)C=C[C@]5(C)[C@H]4CC[C@]3(C)[C@H]2[C@@H]1C (stereo partly specified) | 28.4 | 
75 | CC(=O)Oc1ccc2c(c1)c1c(=O)oc(N(C)C)nc1n2Cc1ccccc1 | > 100 | 
